Data: the supplement of paper PMC4996465
Where a name gives a salt, the structure may show the parent alone. Viability of KB3-1 and Nalm-6 cells after 48 h of drug alone (CellTiter-Glo), 11 doses over about 4.5 log units. % of DMSO wells, lower = more cell loss; AC50 from the fitted curve, lower = more potent. No active / inactive call. Nalm-6 was screened in two runs. AC50 is listed only for well-fitted inhibitory curves. KB3-1 is a HeLa-derived carcinoma line, Nalm-6 a B-cell precursor leukaemia line.

Tests used:
KB3-1 [1] = experiment: log AC50 of viability decrease (48 h) (log10 M); higher = less potent
Procedure: (§1)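 Eleven-dose screen of the NCATS MIPE 3 library on cells without co-treatment; CellTiter-Glo after 48 h. AC50 from the curve fit; only inhibitory curves of the better fit classes are listed.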

Nalm-6 [2] = experiment: as above
Procedure: as §1

KB3-1 [3] = experiment: viability (% of DMSO control); higher = more viable cells
Procedure: (§2)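 Eleven-dose screen of the NCATS MIPE 3 library on cells without co-treatment; CellTiter-Glo after 48 h, as % of DMSO wells.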

Nalm-6 [4] = experiment: as above
Procedure: as §2

Row | SMILES | log AC50 of viability decrease (KB3-1 [1]) | log AC50 of viability decrease (Nalm-6 [2]; run: 1) | log AC50 of viability decrease (Nalm-6 [2]; run: 2) | viability (KB3-1 [3]; 0.00078 µM) | viability (KB3-1 [3]; 0.00234 µM) | viability (KB3-1 [3]; 0.00702 µM) | viability (KB3-1 [3]; 0.0211 µM) | viability (KB3-1 [3]; 0.0632 µM) | viability (KB3-1 [3]; 0.19 µM) | viability (KB3-1 [3]; 0.569 µM) | viability (KB3-1 [3]; 1.71 µM) | viability (KB3-1 [3]; 5.12 µM) | viability (KB3-1 [3]; 15.4 µM) | viability (KB3-1 [3]; 46.1 µM) | viability (Nalm-6 [4]; run: 1, 0.00078 µM) | viability (Nalm-6 [4]; run: 1, 0.00234 µM) | viability (Nalm-6 [4]; run: 1, 0.00702 µM) | viability (Nalm-6 [4]; run: 1, 0.0211 µM) | viability (Nalm-6 [4]; run: 1, 0.0632 µM) | viability (Nalm-6 [4]; run: 1, 0.19 µM) | viability (Nalm-6 [4]; run: 1, 0.569 µM) | viability (Nalm-6 [4]; run: 1, 1.71 µM) | viability (Nalm-6 [4]; run: 1, 5.12 µM) | viability (Nalm-6 [4]; run: 1, 15.4 µM) | viability (Nalm-6 [4]; run: 1, 46.1 µM) | viability (Nalm-6 [4]; run: 2, 0.00078 µM) | viability (Nalm-6 [4]; run: 2, 0.00234 µM) | viability (Nalm-6 [4]; run: 2, 0.00702 µM) | viability (Nalm-6 [4]; run: 2, 0.0211 µM) | viability (Nalm-6 [4]; run: 2, 0.0632 µM) | viability (Nalm-6 [4]; run: 2, 0.19 µM) | viability (Nalm-6 [4]; run: 2, 0.569 µM) | viability (Nalm-6 [4]; run: 2, 1.71 µM) | viability (Nalm-6 [4]; run: 2, 5.12 µM) | viability (Nalm-6 [4]; run: 2, 15.4 µM) | viability (Nalm-6 [4]; run: 2, 46.1 µM)
1 | CO[C@H]1/C=C\C=C(\C)C(=O)NC2=CC(=O)C(NCCN(C)C)=C(C[C@@H](C)C[C@H](OC)[C@H](O)[C@@H](C)/C=C(/C)[C@@H]1OC(N)=O)C2=O [Alvespimycin hydrochloride] | -5.48 | -8.28 | -8.23 | 101% | 56.9% | 62.3% | 66% | 60% | 66% | 56.4% | 57.5% | 17.7% | 12.5% | 3.79% | 91.9% | 67.7% | 44.3% | 33.8% | 20.6% | 20.4% | 14% | 16.4% | 6.36% | 6.36% | 2.61% | 101% | 76.4% | 48.7% | 33.9% | 22.1% | 20.8% | 11.8% | 11.5% | 6.27% | 4.47% | 2.51%
2 | S=C(NCc1ccc2c(c1)OCO2)N1CCN(c2ncnc3c2oc2ccccc23)CC1 [Amuvatinib] | -6.43 | -5.88 | -4.73 | 105% | 106% | 108% | 109% | 103% | 102% | 87.6% | 80.1% | 82.3% | 84.8% | 70% | 127% | 124% | 115% | 115% | 98.3% | 88.5% | 72.6% | 66.4% | 66.2% | 67.6% | 23.5% | 102% | 109% | 97.3% | 101% | 96% | 89.2% | 76.5% | 71.1% | 61.5% | 68.8% | 12.7%
3 | Cc1cccc(/C=N/Nc2cc(N3CCOCC3)nc(OCCc3ccccn3)n2)c1 [Apilimod] | -4.68 | -4.83 | -5.33 | 104% | 106% | 105% | 114% | 110% | 105% | 105% | 103% | 99.3% | 93.2% | 46.1% | 116% | 120% | 103% | 110% | 111% | 85.2% | 78.6% | 71.9% | 67.4% | 62.6% | 1.17% | 107% | 105% | 98.7% | 105% | 94.7% | 70.8% | 63.6% | 55.5% | 45% | 38.2% | -0.554%
4 | CNC(=O)c1ccccc1Sc1ccc2c(/C=C/c3ccccn3)n[nH]c2c1 [Axitinib] | -5.98 | -5.93 | -5.18 | 101% | 99.4% | 101% | 102% | 108% | 98.7% | 98.3% | 70.4% | 71.2% | 68.9% | 56.8% | 105% | 98.1% | 104% | 108% | 103% | 102% | 65.9% | 55.8% | 43.6% | 39.4% | 15.4% | 107% | 107% | 104% | 108% | 106% | 95% | 72.2% | 74.6% | 54.3% | 52.6% | 8.49%
5 | Cc1nc2cnc3ccc(C#Cc4cccnc4)cc3c2n1-c1ccc(C(C)(C)C#N)cc1 [BAG-956] | -6.88 | -6.03 | -5.73 | 104% | 104% | 105% | 103% | 76.5% | 63.8% | 47.9% | 43% | 40% | 33% | 27.8% | 117% | 116% | 117% | 121% | 99.7% | 89.3% | 57.6% | 50% | 40.9% | 14% | 5.65% | 107% | 104% | 112% | 112% | 105% | 85.2% | 71.7% | 49.6% | 40.1% | 9.95% | 0.809%
6 | Cn1c(=O)n(-c2ccc(C(C)(C)C#N)cc2)c2c3cc(-c4cnc5ccccc5c4)ccc3ncc21 [BEZ235] | -7.48 | -5.53 | -5.43 | 101% | 101% | 91.6% | 79.6% | 62.4% | 47.1% | 42.4% | 47.6% | 42.4% | 38.3% | 29.6% | 98.6% | 92.6% | 96.5% | 88.5% | 77.1% | 57.6% | 63% | 60.5% | 50.2% | 35.2% | 15.9% | 102% | 103% | 103% | 98.8% | 90.8% | 72.8% | 68.9% | 56.7% | 40.9% | 35.7% | 11.1%
